In all, about 48,000 compounds went through this assay and about 120 (0.25%) were called active. Another 4% or so got no clear call; they are omitted. Calls come from the whole dose curve; as a rule, active = well fitted activation curve with a large enough effect; inconclusive = small, poorly fitted or top-dose-only effect, or another doubt; inactive = no such curve, though single readings can be large or run the other way. The list shows a part of the results.
Assay: Primary qHTS for Identification of Small Molecule Activators of Huntingtin-Antisense Promoter Activity; note: nearly all actives have a fitted effect of over 55% in size
Settings: HEK293 HTT-AS promoter firefly luciferase reporter, 24 h; series mostly up to 57.5 µM; activity change, positive = activation: at the top concentration
Method in brief: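 HEK293 luciferase promoter-reporter cells (2,500/well) plated 24 h, then compounds added at up to 57.5 uM final for 24 h at 37 °C. Firefly luminescence by Dual-Glo, normalized to vehicle (0%) and zero RLU (-100%).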

Activity change, positive = activation, inactive:
CCc1ccc2[nH]cc(S(=O)(=O)c3ccc(C(C)C)cc3)c(=O)c2c1 -32.1%
Oc1ccccc1-c1nc(-c2cccs2)c(-c2cccs2)[nH]1 -36.5%
O=C(COc1ccccc1Cl)Nc1ccc(OCc2cc(=O)n3ccsc3n2)cc1 -8.14%
COc1ccc(NC(=O)CCc2c(C)nc3c(c2C)c(=O)n(C)c(=O)n3C)c(OC)c1 -13.2%
CCc1ccccc1NC(=O)Cn1nc2c3cc(F)ccc3n(Cc3cccc(C)c3)cc-2c1=O -16.1%
O=C(COc1ccccc1F)Nc1ccc2nc(SCC(=O)N3CCc4ccccc43)sc2c1 -31.9%
CCOC(=O)c1c(NC(=O)c2cc(-c3ccccc3OC)on2)sc(C)c1C -14%
CCOc1ccc(-c2cn3c(n2)sc2cc(C(=O)NCCCN4CCCCCC4)ccc23)cc1 6.25%
CCc1ccc2oc(C(=O)NCC(c3ccc(OC)cc3)N3CCCCC3)c(C)c2c1 (stereo not drawn) 13.8%
Cc1cc(NC(=O)C2CCN(S(=O)(=O)c3c(C)noc3C)CC2)ccc1Br -26%
Cc1cc(C)c2nc(N(Cc3cccnc3)C(=O)CCS(=O)(=O)c3ccccc3)sc2c1 -4.35%
CC1=C(C(=O)Nc2cccnc2)C(c2ccc(F)cc2)n2nc(-c3cccc(C)c3)nc2N1 (stereo not drawn) -22.5%
COc1ccccc1CNC(=O)C1(c2cccs2)CCOCC1 -7.49%
COc1ccc(-c2nc3nc(C)cc(C)n3c2Nc2c(C)cccc2C)cc1 -13.5%
COc1ccc(CNC(=O)C2CCCN(S(=O)(=O)N(C)c3ccc(F)cc3)C2)cc1OC (stereo not drawn) -85.3%
O=C(OCc1cc(=O)n2nc(-c3cccs3)sc2n1)c1cccc(Cl)c1 10.4%
OC1CCC(Nc2ncc3nc(Nc4c(F)cc(F)cc4F)n([C@@H]4CCOC4)c3n2)CC1 (stereo partly drawn) -4.31%
Cc1ccc(C)c(Cn2c(=O)n(CC3CCC(C(=O)N4CCOCC4)CC3)c(=O)c3sccc32)c1 (stereo not drawn) -11.3%
Cc1ccc(C)c(CNS(=O)(=O)c2ccc3c(c2)C(C)(C)C(=O)N3C)c1 -20.2%
COc1ccc2c(c1)c1c(c(=O)n(-c3ccc(C)cc3)c(=O)n1CC(=O)c1ccc(Cl)cc1)n2C -4.95%
COc1ccc(NC(=O)Cn2cc(S(=O)(=O)N3CCC(C)CC3)c3ccccc3c2=O)cc1Cl -17.7%
CC1CCN(S(=O)(=O)c2ccc3c(c2)N(CC(=O)NCCN(C)C)C(=O)CO3)CC1 -10.4%
Cc1ccc(C)c(N2CCN(C(=O)c3ccc(-c4nc(COc5ccccc5)c(C)o4)cc3)CC2)c1 -16% [at 11.5 µM, percent change from vehicle, -100% = no light]
CCOc1ccc(NC(=O)c2ccc3[nH]c(C)cc(=O)c3c2)cc1 -8.75%
CCOc1ccc(C(=O)OCCN(CC)CC)cc1 -8.51%
COc1ccc2c(CNCCc3ccccc3C)c(C(=O)O)n(Cc3ccccc3C)c2c1 -13.6%
CCOC(=O)c1c(S(=O)(=O)N2CCCC(C(=O)NCc3ccc(F)cc3)C2)c(C)n(CC)c1C (stereo not drawn) -13%
COc1ccc(CN(Cc2ccco2)C(=O)COc2ccc(Cl)cc2C)cc1 -16.9%
CC(=O)N1CCc2c(sc3c2c(=O)n(-c2cccc(Cl)c2C)c(=O)n3Cc2ccccc2C)C1 -40.8%
Cc1ccc2c(c1)cc1c(=O)n(CC(=O)N(C)c3ccccc3)nc(C)n12 -11.8%
Cc1ccc(NC(=O)CSc2nc3nc(C)c(Cc4ccccc4)c(C)n3n2)cc1 -15.6%
CC(C)CNC(=O)N1CCN(S(=O)(=O)c2ccc3c(ccn3C)c2)CC1 -10%
CCCCCCCCCCCCCCCC(=O)O 1.51%
Cc1ccc2oc3c(c(=O)c2c1)C(c1ccccc1F)N(c1ccccn1)C3=O (stereo not drawn) -16.5%
COc1ccc(Cn2ccnc2SCC(=O)Nc2ccc3c(c2)OCO3)cc1 6.57%
COc1ccc(-c2cc(C(F)(F)F)n3nc(C(=O)Nc4cc(C(F)(F)F)ccc4Cl)cc3n2)cc1OC 7.32% [at 11.5 µM, percent change from vehicle, -100% = no light]
Cc1ccc(NC(=O)Cn2c(=O)c(C(F)(F)F)nc3ccccc32)cc1C 19.6%
Cc1ccc(C(C(=O)NC2CCCCC2)N(C)Cc2ccccc2)cc1 (stereo not drawn) -2.08%
CCOC(=O)c1ccccc1NC(=O)Cn1nnc2sc3c(c2c1=O)CCCC3 -9.32%
Cc1oc2c(c1C(=O)Nc1ccc(F)c(F)c1)C1=NCCN1C=N2 12.4%
CCc1cccc(CC)c1NC(=O)CCS(=O)(=O)c1ccc(Br)s1 -9.89%
CCOC(=O)c1ccccc1Nc1nc2ccc(C)cc2n2nnnc12 2.04%
Cc1cccc(C)c1NC(=O)c1nc(S(C)(=O)=O)ncc1N(Cc1ccc(C(C)(C)C)cc1)Cc1ccco1 -18.4%
Cn1cc(-c2cc3n(n2)CCC(=O)N3CCCC(=O)NCc2ccc(F)cc2)c2ccccc21 -29.4%
CCOc1ccc(NC(=O)c2oc3ccccc3c2NC(=O)C2CCCCC2)cc1 -2.38%
CC1CCN(S(=O)(=O)c2ccc3c(c2)CCN3C(=O)Nc2cccc(Br)c2)CC1 -5.44%
Cc1ccc(-c2nc3n(n2)C(c2ccccc2Cl)C=C(c2ccc(Cl)cc2)N3)cc1 (stereo not drawn) -12.1%
CCOC(=O)c1ccc(CN(Cc2ccc(C)cc2)S(=O)(=O)c2ccc(F)c(C(=O)Nc3ccc(C)c(F)c3)c2)cc1 3.9%
CCOCCc1nn2c(=O)cc(COC(=O)c3ccccc3NC(=O)c3ccccc3F)nc2s1 -10.9%
Cc1ccc(S(=O)(=O)NC2(C(F)(F)F)NC(=O)N(c3ccc(F)cc3)C2=O)cc1 (stereo not drawn) -11.4%
CCOc1ccc(C(=O)c2cn(CC(=O)Nc3ccc(OC)cc3)c3cc4c(cc3c2=O)OCO4)cc1 -13.7%
CCOC(=O)c1c(C)[nH]c(C)c1S(=O)(=O)N1CCCC(C(=O)Nc2ncccc2C)C1 (stereo not drawn) 7.5%
CC(C)CCn1c(=O)c2cccnc2n(CC(=O)Nc2ccccc2)c1=O -23.4%
CCS(=O)(=O)N1CC(=O)N(c2cccc(Cl)c2)C(C)(C(=O)NC2CCCCCC2)C1 (stereo not drawn) -12.3%
Cc1oc(-c2ccc(C(=O)NCCC(C)C)cc2)nc1CS(=O)(=O)c1ccccc1 -7.79%
N#Cc1c[nH]n2c(NC3CCCC3)c(-c3cccc(Br)c3)nc12 -10.5%
C=C[C@@H]1CN2CCC1C[C@@H]2C(O)c1ccnc2ccc(OC)cc12 (stereo partly drawn) -12.1%
CN(C)c1ccc(CN(Cc2ccco2)C(=O)COc2ccc(F)cc2)cc1 -36.9%
Cc1ccc(NC(=O)N2CC3CCCN3c3ccccc32)cc1C (stereo not drawn) -27.4%
COc1ccccc1CCNC(=O)C(=O)NCC(c1ccco1)S(=O)(=O)c1cccs1 (stereo not drawn) -16%
COc1ccc(C(=O)Nc2ccc(NC(=O)c3cccs3)cc2)cc1OC -13.7%
Cc1cccc(C(=O)NCC(c2cccs2)S(=O)(=O)c2cccs2)c1 (stereo not drawn) -6.49%
Cc1nc2sc(C)c(C)n2c(=O)c1S(=O)(=O)N1CCN(c2ccccc2F)CC1 -12.8%
Cc1cc(C)cc(OCC(=O)Nc2nonc2-c2ccc(Br)cc2)c1 -23.9%
Cc1ccc2c(Sc3ccc(Cl)cc3)c(C(=O)NCCC(C)C)[nH]c2c1 13.6%
Cc1c(C(=O)N(Cc2ccc(N(C)C)cc2)CC2CCCO2)oc2ccccc12 (stereo not drawn) -9.7%
CCCSc1ncc(Cl)c(C(=O)Nc2ccc(S(=O)(=O)N3CCCC(C)C3)cc2)n1 (stereo not drawn) -29.8%
COc1cc(O)c2c(c1)C1OC1C[C@H](O)[C@H](O)C(=O)C=CC[C@H](C)OC2=O (stereo partly drawn) -57.6%
CCc1nnc(SCc2nc(-c3ccccc3Cl)oc2C)c2cc3sc(C)cc3n12 -2.44%
O=C(Nc1nc2c(F)cccc2s1)c1ccc(S(=O)(=O)N2CCOCC2)cc1 -21.7%
COc1ccc2[nH]cc(CCNC(=O)Nc3ccccc3)c2c1 -16.2%
COc1ccc(CN(C(=O)c2ccccc2F)C2CCS(=O)(=O)C2)cc1 (stereo not drawn) 3.64%
CCOCCCn1c(=N)c(C(=O)NC(C)c2ccccc2)cc2c(=O)n3cc(C)ccc3nc21 (stereo not drawn) -7.09%
CCc1cccc(CC)c1NC(=O)CN(CC(=O)O)CC(=O)O -9.48%
Cc1ccn2c(NC(=O)c3cccc(Cl)c3)c(-c3ccccc3)nc2c1 -13%
CCCC(=O)N1CCc2cc(OC)c(OC)cc2C1COc1ccccc1OC (stereo not drawn) -21.4%
CCc1ccc(CNc2ncc(-c3cccc(OC)c3)n2C)cc1 -37.5%
Cc1cccc(C)c1NC(=O)Cn1c(=O)n(Cc2ccc(C(=O)NCc3ccco3)cc2)c(=O)c2sccc21 -5.2%
CCOC(=O)Cc1cc(C(=O)Nc2ccc(Br)cc2)sc1-c1ccc(C)cc1 -20.2%
COc1ccc(-c2nc3ccccc3o2)cc1NC(=O)c1cccc2c(Cl)cccc12 26.6%
COc1ccc(NC(=O)CC2C(=O)N(c3ccc(OC)cc3)C(=O)N2Cc2ccc(OC)c(OC)c2)cc1 (stereo not drawn) -12.7%
CCOc1ccc(N2CC(NC(=O)Cc3cccs3)CC2=O)cc1 (stereo not drawn) -16%
CCOc1ccc(CCNC(=O)CCn2c(=O)c3cccn3c3ccc(F)cc32)cc1OCC -7.12%
CCOc1ccc(NC(=O)CCc2c(C)nc3c4c(C)cc(C)nc4nn3c2C)cc1 5.53%
CN(Cc1ccccc1)c1ccc2cc(S(=O)(=O)N3CCCCC3)ccc2n1 -6.12%
Cc1ccc(C)c(CSc2cn(CC(=O)N3CCCC3)c3ccccc23)c1 -0.36%
COc1ccc2cc(-c3nc(-c4ccc(N(C)C)cc4)no3)c(=O)oc2c1 1.62%
CCCN(Cc1cccs1)C(=O)Nc1cc(C)cc(C)c1 -14.3%
Cc1nn(C)c2c1c(-c1ccccc1)cc(=O)n2Cc1ccc(F)cc1Cl -16.8%
CCN(CC)C(=O)Cn1c(=O)n(-c2ccc(Cl)cc2)c(=O)c2c3c(sc21)CCCCC3 -9.14%
COc1ccc(NS(=O)(=O)c2ccc3c(c2)CC(C)N3C(=O)C2CCC2)cc1OC (stereo not drawn) -49.7%
Cc1ccc(NS(=O)(=O)c2ccc3nc(-c4ccccc4)[nH]c3c2)cc1Cl -36.5%
COc1ccc(Br)cc1CNC(=O)C1CCN(c2nnc(-n3cccc3CNc3ccc(C)cc3)s2)CC1 -29.2%
